The structures appear in SMILES notation.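 Dose response: 5 concentrations. Exposure: 48 h. Format: 96-well plates. Endpoint: linear interpolation; highest concentration if not reached. Abbreviation: GI50, concentration required for 50% inhibition of growth. TGI is the concentration that stops growth completely.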

In this assay the test system is NCI-H322M lung. The assay can be described thus: NCI anticancer screen, dose series, 48 h.
The compound `COc1ccccc1C1C(Cl)C(=O)N1n1cnc2ccccc2c1=O` (configuration not stated) registered a TGI above 100 µM.
The same measure, in the same setting: the same measure for `CCCCCCCCOCC(O)COC(C)C` (configuration not stated): above 100 µM.
The same measure, in the same setting: the same measure for `Cc1sc2[nH]c(=O)oc(=O)c2c1C`: above 100 µM.
For `Cc1cccc(-c2[nH]ncc2-c2ccc3ncccc3n2)n1`, the GI50 was 14.2 µM and the TGI is above 25 µM.
The compound `O=C(O)CSC(CC1(c2ccc(Cl)cc2)NC(=O)CS1)c1ccc(Cl)cc1` (configuration not stated) yielded a TGI above 100 µM.
Take `COc1cc([C@@H]2c3cc4c(c(O)c3C[C@H]3COC(=O)[C@@H]32)OCO4)cc(OC)c1OC`: the GI50 was 0.648 µM.
The compound `O=C1CC(c2c(-c3ccccc3)[nH]c3ccccc23)C(=O)N1` (configuration not stated) showed a TGI above 100 µM.
For the compound `C=C(C)[C@@H]1CC[C@]2(COCCC#N)CC[C@]3(C)[C@H](CC[C@@H]4[C@@](C)(CCCNCCC#N)[C@H](C(=C)C)CC[C@]43C)[C@@H]12`, the GI50 is above 50 µM and the TGI was above 50 µM.
Consider `C=C(C)C1CC/C(C)=C/CCC2(C)OC2CC/C(CO)=C\C1O` (configuration not stated), for which the TGI was above 100 µM.
With `CC[C@@H]1[C@@H](C)O[C@@](O)([C@@H](C)[C@H](O)[C@H](C)[C@H]2OC(=O)/C=C/C=C/[C@H](C)[C@@H]([C@@H](C)[C@@H](O)[C@H](C)[C@@]3(O)C[C@@H](O[C@H]4C[C@@H](O)[C@H](O)C(C)O4)[C@H](CC)[C@@H](C)O3)OC(=O)/C=C/C=C/[C@@H]2C)C[C@H]1O[C@@H]1C[C@@H](O)[C@H](O)C(C)O1` (some centres not stated), the GI50 was 0.0838 µM and the TGI stood at 0.205 µM.
For `CCCCCCCC/C=C/CCCCCCCC1=NC(C)(C)CN1CC(C)O` (configuration not stated), in that order: 1.77 µM and 4.09 µM.
In turn, `C[Si](C)(C)C#Cc1cc(-c2nc3ccccc3s2)ccc1N` had a TGI of 31.8 µM.
Still for that read-out and setting: the figure for `c1ccc2c(c1)NCCC(=NC1CCCCC1)N2` is above 100 µM.
Take `CN(C)c1ccc(/C=C/c2ccnc3c(O)cccc23)cc1`: the GI50 was 0.501 µM and the TGI is above 100 µM.
For the compound `Cc1ccc(/C=N/n2c(Cc3ccccc3)n[nH]c2=O)cc1`, the TGI is above 100 µM.
The compound `Cc1cc([N+](=O)[O-])ccc1NC(=O)C(=O)C(C(=O)c1ccccc1-c1ccccc1)C1OC(=O)c2ccccc21` (configuration not stated) gave a TGI of 34 µM.
For `CCOC(=O)c1ccccc1OC(=O)NNc1ccccc1`, the GI50 was above 38.3 µM and the TGI was above 100 µM.
Take `COc1ccc(OC)c(CSc2ccc(OC)c(OC)c2)c1`: the TGI is above 100 µM.
Still for that read-out and setting: the figure for `CC1=C(O)c2cn(C)cc2C(=O)C1=O` is above 100 µM.
On the same count and under the same terms, the figure for `CCOc1ccc2nc3nc(=O)[nH]c(C)c3c(NCCCN(CC)CC)c2c1` is above 100 µM; for `CC1=Nc2ccccc2NC(c2ccoc2)C1` (configuration not stated) it is above 100 µM.
On to `CCC(CC)c1nc(Nc2ccc(C(=O)OC)cc2)c2ccccc2n1`, for which the GI50 is 0.447 µM and the TGI came out at 15.1 µM.
`C=CCc1[nH]c2c(OCc3ccccc3)cc(N(CC=C)C(C)=O)cc2c1C`: the TGI worked out at 24.7 µM.
The same measure, in the same setting: the same measure for `COc1cc(C2S/C(=C/c3ccccc3)C(=O)N2c2ccc(NC(C)=O)cc2)cc(OC)c1OC` (configuration not stated): 74.2 µM; for `O=[N+]([O-])c1ccc(C2CC(c3ccccc3Cl)=Nc3ccccc3S2)cc1` (configuration not stated): 61 µM; for `CC12OOC(c3ccccc31)c1c2ccc2ccccc12` (configuration not stated): 31.7 µM.
In the case of `CCOC(=O)c1ccc(Nc2sc(C(=O)c3ccc(Br)cc3)c(N)c2C#N)cc1`, the GI50 is 5.74 µM and the TGI is above 100 µM.
As to `COc1cc(/C=C2/SC(c3ccccc3)N(Cc3ccccc3)C2=O)cc(OC)c1OC` (configuration not stated), the TGI was above 100 µM.
The same measure, in the same setting: the figure for `COc1cccc2ccc(C(=O)c3ccccc3)nc12` is above 100 µM; for `CN(C)c1ccc(/C=C/C(=O)[O-])cc1.CN(C)c1ccc(/C=C/C(=O)[O-])cc1.[Cu+2]` it is above 100 µM; for `N#CC(N)c1ccc(OCCCCCCCCCCOc2ccc(C(N)C#N)cc2)cc1` (configuration not stated) it is above 100 µM.
Regarding `CC(C)(C)N1CCC1CN` (configuration not stated), the GI50 is above 100 µM and the TGI was above 100 µM.
`O=C1c2[nH]cc(CNC3CN4CCC3CC4)c2C(=O)c2c1c(O)c1ccccc1c2O` (configuration not stated): the GI50 is 1.24 µM and the TGI came to 2.9 µM.
Turning to `N#C[C@H](C(=O)c1ccccc1F)c1nc2ccccc2s1`, the TGI came out at 64.1 µM.
On the same count and under the same terms, the figure for `CCN1CCCC(C#N)(c2ccccc2)CC1` (configuration not stated) is above 100 µM.
As for `Cc1ccc(Cl)cc1Nc1nc(C(F)(F)F)ccc1C(=O)N/N=C/c1cccnc1`, the GI50 is 0.719 µM and the TGI came out at 6.39 µM.
Turning to `CC1=NN(c2nc(N)nc(CBr)n2)C(C)(C)C1`, the TGI turned out to be 30.8 µM.
Same read-out and setting: the figure for `Oc1ccc2c(c1)CCc1c-2n(CCN2CCOCC2)c2ccc(O)cc12` is above 100 µM; for `O=[N+]([O-])c1ccc(-c2cc(O)c3nc4ccccc4n3c2)cc1` it is above 100 µM; for `CC(=O)OC(CN1CCN(c2ccccn2)CC1)Cn1sc2nc(C)cc(C)c2c1=O` (configuration not stated) it is 32.1 µM.
Still for that read-out and setting: the same measure for `CCCCCCCCCCCCCCCCCCNc1ccn(C2OC(COP(=O)(O)OCC3OC(n4cc(C)c(=O)[nH]c4=O)CC3F)C(O)C2O)c(=O)n1` (configuration not stated): 19.2 µM.

The record behind these values is PubChem BioAssay (NCI).
